Source: publication PMC12040169 (PLOS Biology, 2025)
This is one part of the list.

test system: T1, C. trachomatis L2/434/Bu expressing GFP (CTL2-GFP); parameters: species or system HeLa; C. trachomatis total inclusion area by high-content imaging, normalised to DMSO; conditions: total inclusion area; 28.5 h, 10 µM; inhibitor
T1 construct: L2/434/Bu GFP intracellular growth in HeLa cells
How it was run: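 Host cell viability was gauged from Hoechst-stained nuclei counts, while chlamydial growth was taken from total inclusion area and inclusion number per well. Cells were fixed and imaged by high-content microscopy once bulk GFP and resorufin fluorescence had been measured.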

| SMILES | % of control remaining |
| --- | --- |
| CCN1CCCC1CN(Cc1ccncc1)Cc1ccoc1 (stereo not shown) [CBK283171] | 99.4607 |
| COc1cc(C)c(Nc2cc(-c3ccc(F)c(F)c3)ncn2)cc1OC [CBK090787] | 50.7615 |
| O=C(c1ccc([N+](=O)[O-])cc1Cl)N1CCN(Cc2ccccc2)CC1 [CBK261778] | 99.9435 |
| Cc1cc(N2CCCC2)c(F)cc1CN1CCC(CO)C1 (stereo not shown) [CBK282916] | 91.8899 |
| COc1ccc(C(=O)C2=C(O)C(=O)N(CCN(C)C)C2c2cccc([N+](=O)[O-])c2)cc1C (stereo not shown) [CBK264875] | 105.068 |
| O=C(c1ccc(OC(F)(F)F)cc1)N1CCC2(CCCNC2)C1 (stereo not shown) [CBK137156C] | 78.8387 |
| Cc1nn(-c2ccc(F)cc2)c2[nH]c(=O)c(CNC3CC3)cc12 [CBK283121] | 98.0827 |
| O=C1NC2(CCSCC2)Oc2ccccc21 [CBK007488] | 81.1767 |
| O=C(NC(c1ccccc1)c1ccccc1)N1CCCC(CO)C1 (stereo not shown) [CBK156036] | 98.0649 |
| CN(C)CCn1c(C(=O)O)cc2ccccc21 [CBK268234C] | 88.6101 |
| O=S(=O)(Nc1cccc(-c2nnn[nH]2)c1)c1ccc(F)cc1 [CBK050470] | 99.1071 |
| Cc1ccc(C(=O)NC(C)c2nc3ccccc3n2Cc2ccc(C(=O)O)o2)cc1 (stereo not shown) [CBK295159] | 98.4819 |
| CC(C)N1CCCC(CNC(=O)C2Cc3cc(Cl)ccc3O2)C1 (stereo not shown) [CBK282686] | 108.428 |
| O=S(=O)(CCN1CCN(Cc2ccccc2)CC1)c1ccc(F)cc1 [CBK074809] | 60.011 |
| CC(C)NC(=O)C1(Cc2ccc(-c3ccccc3F)cc2)CCN(C(=O)C(C)C)CC1 [CBK285754] | 98.1912 |
| CSc1nc2ccc(S(=O)(=O)NCCOc3ccc(Cl)cc3)cc2s1 [CBK268219] | 98.1289 |
| c1ccc(CCN2CCN(Cc3cccnc3)CC2)cc1 [CBK126424] | 104.133 |
| Cc1cc(S(=O)(=O)Nc2ccccc2-c2nncn2C)c(C)o1 [CBK306414] | 53.4194 |
| CS(=O)(=O)c1ccc(-c2ccc(OCC3CCN(C(=O)c4cccc(C#N)c4)CC3)nc2)cc1 [CBK162283] | 54.2668 |
| CCOc1oc2cc(O)ccc2c1C(=O)CSC1CCCCC1 [CBK022262] | 33.0435 |
| Brc1cn2ccnc2c(Nc2ccc3[nH]ccc3c2)n1 [CBK037449] | 82.5184 |
| O=C(O)C1C2C=CC(O2)C1C(=O)Nc1ccc(S(=O)(=O)N2CCc3ccccc32)cc1 (stereo not shown) [CBK268176] | 80.0168 |
| CCCc1nn(CC(=O)OC)c(=O)c2cc3ccsc3n12 [CBK284144] | 95.428 |
| CCC(=O)N1CCN(CCNC=C2C(=O)CC(c3cccs3)CC2=O)CC1 (stereo not shown) [CBK264817] | 111.863 |
| COc1ccc(C(=O)Nc2ccc(N3CCN(C(=O)C(C)(C)C)CC3)cc2)cc1 [CBK270266] | 82.0995 |
| O=C(CC(NC(=O)c1ccccc1)c1ccccc1)Nc1cccc2ccccc12 (stereo not shown) [CBK263901] | 75.6879 |
| CC(NC(=O)C1CCN(CCN2C(=O)c3ccccc3C2=O)CC1)c1ccc(F)cc1 (stereo not shown) [CBK148750] | 100.89 |

| SMILES | % of control remaining |
| --- | --- |
| CN1CCC(=NNC(=O)CN(c2ccc(Oc3ccccc3)cc2)S(C)(=O)=O)CC1 [CBK262338] | 107.363 |
| CCC(C(=O)O)c1ccc(-n2sc3ccccc3c2=O)cc1 (stereo not shown) [CBK011773] | 83.9896 |
| O=C(CSc1ccc2ccccc2c1)Nc1ccc(Cl)c(C(=O)O)c1 [CBK268239] | 114.746 |
| O=C(CCc1ccc(S(=O)(=O)NC2CCCCC2)cc1)Nc1ccc2c(c1)OCCO2 [CBK266845] | 89.653 |
| O=C(CSc1cccc2c(SCC(=O)c3ccccc3)cccc12)c1ccccc1 [CBK261255] | 96.2243 |
| c1cnc(N2CCN(Cc3ccc4c(c3)OCO4)CC2)c(OC2CCCCC2)n1 [CBK082833T] | 80.5884 |
| COc1ncc(-c2nccnc2N2CCCC2CO)c(OC)n1 (stereo not shown) [CBK036638] | 90.9068 |
| Cc1ccc(C(=O)O)cc1NC(=O)c1cccc(C(=O)Nc2cc(C(=O)O)ccc2C)c1 [CBK262797] | 120.486 |
| CSc1ncc(Cl)c(C(=O)Nc2nc(-c3ccc(S(=O)(=O)N4CCOCC4)cc3)cs2)n1 [CBK269064] | 73.0662 |
| Cc1ccc(C=C(c2ccccc2)c2nc3sc(C(=O)O)c(C)c3c(=O)[nH]2)s1 [CBK295638] | 99.471 |
| CC(=O)Nc1ccc(S(=O)(=O)N2CCN(S(=O)(=O)c3ccc(C)cc3)CC2)cc1 [CBK264276] | 116.808 |
| O=S(=O)(Nc1ccc(N2CCNCC2)c2ccccc12)c1ccc(Br)cc1F [CBK200014C] | 64.9788 |
| Fc1ccccc1COc1ccccc1CNCCN1CCOCC1 [CBK278222C] | 48.0794 |
| Nc1nc(CSc2nnc(-c3ccco3)n2-c2ccccc2)cs1 [CBK269693] | 78.5835 |
| COc1cc(/C=C/C(=O)NCc2ccc(C(=O)O)cc2)ccc1O [CBK286728] | 114.368 |
| COc1ccccc1/C=C/CN(C)CCN(C)C [CBK261888] | 99.5409 |
| Cc1cc(CN2CCN(S(=O)(=O)c3ccc(C(=O)c4ccccc4)cc3)CC2)cc(C)c1O [CBK062933] | 88.5178 |
| C#CCNC(=O)[C@@H]1Cc2cn(Cc3c(C)noc3C)c3cccc(c23)[C@H](CC(C)C)N1 [CBK289425] | 125.039 |
| Cn1nccc1CN(Cc1ccc(F)cc1)Cc1cccnc1 [CBK282261] | 95.2988 |
| CCN1CCN(c2cc(C)nc3c(-c4ccccc4)cnn23)CC1 [CBK287793] | 100.515 |
| COc1ccc2[nH]c(NCCCO)nc2c1 [CBK264155] | 117.004 |
| O=C1NC(=O)C(CC(=O)N2CCC3(CCCNC3)C2)N1 (stereo not shown) [CBK153232C] | 95.8788 |
| Cc1cc(C)c(OCCCN2CCCCCC2)c(Cl)c1 [CBK266026G] | 94.9199 |
| CC(C)(C)c1csc(C(=Cc2ccc(C#N)cc2)C(N)=O)n1 [CBK001154] | 91.8433 |
| Cc1nc(-c2ccc(CCNC(=O)c3cc(O)nc4ccccc34)s2)cs1 [CBK297720] | 109.409 |
| Fc1ccccc1CN(CCCn1ccnc1)Cc1ccco1 [CBK282952] | 81.6193 |
| COc1ccc(-n2cc(-c3ccc(F)cc3)nn2)cc1OC [CBK113110] | 97.5221 |

| SMILES | % of control remaining |
| --- | --- |
| COc1cc(C#N)ccc1Oc1nnnn1-c1ccccc1 [CBK002571] | 80.6147 |
| CCn1c(=O)[nH]c(=O)c2cnc(-c3ccc(OC)cc3)nc21 [CBK291259] | 73.3391 |
| CCn1cncc1CN1CCN(CC2(c3ccc(C)cc3)CC2)CC1 [CBK283307] | 96.4925 |
| Cc1ccc(C(=O)N2CCC(Cc3ccccc3-c3ccccc3)(C(=O)N(C)C)CC2)s1 [CBK285677] | 109.488 |
| CCNC(=O)C1(Cc2ccc(-c3cccs3)cc2)CCN(C(=O)Cc2ccccc2)CC1 [CBK285795] | 85.0969 |
| CC(=O)N1CCc2sccc2C1c1ccc(NC(=O)c2ccco2)cc1 (stereo not shown) [CBK286199] | 107.854 |
| O=C(Nc1ccc(N2CCNCC2)nc1)C1CCCO1 (stereo not shown) [CBK004748T] | 112.307 |
| CC(C)(CN)CN(Cc1ccccc1C(F)(F)F)C(=O)Nc1ccc(C(C)(C)C)cc1 [CBK026828C] | 57.213 |
| CN1CCN(S(=O)(=O)c2cccc(C(F)(F)F)c2)CC1 [CBK062425] | 108.347 |
| O=S(=O)(c1ccc(C2=CSC3=NCCN23)cc1)N1CCOCC1 [CBK019381] | 100.337 |
| COc1cccc(C(CNS(=O)(=O)c2ccc3c(c2)OCCCO3)N(C)C)c1 (stereo not shown) [CBK298270] | 69.965 |
| O=C(Cc1ccc(Cl)c(Cl)c1)NC(c1ccccc1)c1ccccn1 (stereo not shown) [CBK144110] | 90.8627 |
| COC(=O)Cn1c(-c2ccc(F)cc2)cc2cccnc21 [CBK282763] | 104.378 |
| O=C(NC(Nc1cccc(C(F)(F)F)c1)C(=O)c1ccccc1)c1ccc(Cl)cc1 (stereo not shown) [CBK263585] | 95.2019 |
| Cc1csc(NC(=O)Cc2ccccc2F)n1 [CBK288252] | 84.9218 |
| C=CCN(c1ccc(C(=O)O)cc1)S(=O)(=O)c1ccc(/C=C/C(=O)O)cc1 [CBK263364] | 103.749 |
| CC(C(=O)NC1(C#N)CCCCC1)N1CCOC(c2nccs2)C1 (stereo not shown) [CBK305299] | 68.0738 |
| OCc1ccccc1-c1nccnc1NCc1ccc2c(c1)OCO2 [CBK038046] | 30.2081 |
| Cc1nc(-c2ccccc2)c(CC(=O)N(C)CCN(C)C)s1 [CBK282725] | 95.5454 |
| O=C1NCC2(CCCN(C(=O)c3cccs3)C2)Oc2ccccc21 (stereo not shown) [CBK284900] | 91.1487 |
| CCOC(=O)c1sc(-c2c(Cl)cc(C(F)(F)F)cc2Cl)nc1O [CBK078547] | 86.0916 |
| Cc1cnc(CNC(=O)N2CCN(C3CCN(C)CC3)CC2)cn1 [CBK155886] | 128.936 |
| Cn1c(N2CC[C@H](O)C2)nc2cc(C(=O)NCCc3cscn3)ccc21 [CBK306824] | 57.3471 |
| O=C(O)CN1C(=O)/C(=C\c2ccc(Oc3ccc(C(F)(F)F)cc3[N+](=O)[O-])cc2)SC1=S [CBK264809] | 115.239 |
| O=C(CN1CCC2(CC1)CN(C(=O)CO)c1ccccc12)c1ccsc1 [CBK144605T] | 79.9136 |
